IFI data for 94 compounds are collected here from ChEMBL document CHEMBL1156829.

Structures are written as SMILES. The full ranking holds about 5,400 compounds; the median of “IFI” is about 2, and the highest 2% start at about 22. This is one part of the list.

This assay can be described thus: NOVARTIS: Inhibition Frequency Index (IFI) - the number of HTS assays where a compound showed > 50% inhibition/induction, expressed as a percentage of the number of assays in which the compound was tested. Type of assay: functional.
In the case of `Cn1c(=O)n(Cc2ccccc2)c(=O)c2c1nc(SCC(=O)Nc1ccccc1)n2Cc1ccccc1`, the IFI worked out at 0%.

Compound `CC(C)=CCCC1=CCC(CNCCCN(C)C)C(C)C1` (centres undefined) returned an IFI of 8.96%.

As for `CC(C)CNC(=O)c1cnc(NCCCn2ccnc2)nc1NCCc1ccccc1`, the IFI turned out to be 0.962%.

In turn, `CCCCC(=O)Nc1ccccc1-c1nnn(CC(=O)Nc2ccc3c(c2)OCCO3)n1` had an IFI of 0%.

Take `OCC[n+]1ccc(/C=C/c2c[nH]c3ccccc23)cc1`: the IFI amounted to 2.27%.

`Cc1ccccc1NC(=S)NC(Cc1ccccc1)c1ccccc1` (centres undefined) yielded an IFI of 6.82%.

`CN(CCCNc1ccnc2cc(Cl)ccc12)C(=O)c1ccc2c(c1)OCO2`: the IFI came out at 1.87%.

`O=C(NC(=S)Nc1ccc([N+](=O)[O-])cc1Cl)c1ccco1`: the IFI came out at 0%.

`CCC(Sc1nc2ccccc2n1C(C)=O)C(=O)NC1=NN=C(c2ccc(Br)cc2)CS1` (centres undefined) returned an IFI of 5.71%.

On to `COc1cccc(-n2sc3c(c2=S)-c2cc(OC)ccc2NC3(C)C)c1`, for which the IFI came to 3.68%.

On to `CC(C)(C)NC(=S)NN=CC=NNC(=S)NC(C)(C)C`, for which the IFI turned out to be 4.72%.

In turn, `O=C(/C=C/c1ccccc1)Nc1ccccc1C(=O)Nc1ccc(-c2nc3ccc(NC(=O)c4ccccc4NC(=O)/C=C/c4ccccc4)cc3[nH]2)cc1` registered an IFI of 15.4%.

As for `Cc1ccc(C)c(N2C(=O)CC(Cc3ccc(Cl)cc3)C2=O)c1` (centres undefined), the IFI was determined as 0%.

`COc1ccc(CNC(=O)C(Cc2c[nH]c3ccccc23)N2CCS(=O)(=O)CC2)cc1` (centres undefined) gave an IFI of 1.28%.

For the compound `CC(c1nc2ccccc2c(=O)n1-c1ccccc1Cl)N(Cc1ccccc1)C(=O)Nc1cccc(Br)c1` (centres undefined), the IFI is 5.88%.

The compound `CN1CCN(c2c3c(c(C#N)c4nc5ccccc5n24)CCC3)CC1` returned an IFI of 0.671%.

The compound `C=CCOc1ccc(C2C(C(=O)OCC)=C(C)N=c3sc(=Cc4ccccc4O)c(=O)n32)cc1OCC` (centres undefined) had an IFI of 2.35%.

`COc1ccc(CNC2CCN(Cc3ccccc3)CC2)cc1OCc1ccccc1` yielded an IFI of 14.3%.

The compound `Cc1ccc(C2CC(=O)N3CN(c4ccc(Br)cc4)CSC3=C2C#N)o1` (centres undefined) gave an IFI of 0%.

As to `CC1CCCCN1CCCNc1ncc(C(=O)NCc2ccccc2)c(NCC2CCCCC2)n1` (centres undefined), the IFI came out at 0.971%.

`CCOC(=O)c1cnc2c(ccc3ccccc32)c1Nc1ccc(NC(C)=O)cc1` gave an IFI of 0%.

For `Cc1ccc(-c2cc(N3CCCC3CO)n3nccc3n2)cc1` (centres undefined), the IFI was 3.03%.

Compound `CCOC(=O)C1=C(C)NC2=C(C(=O)C(C(=O)OCC)C(c3ccccc3OC)C2)C1c1cccs1` (centres undefined) registered an IFI of 4.49%.

As for `COc1cc(OC)cc(-n2nc(C(=O)NC3CCCCC3)c3ccccc3c2=O)c1`, the IFI amounted to 2.41%.

Regarding `C[n+]1ccc(C=Cc2ccc(O)cc2)cc1`, the IFI was found to be 2.21%.

The compound `COc1cc(OC)cc(C(=O)NCc2n[nH]c(=S)n2-c2cccc(C(F)(F)F)c2)c1` displayed an IFI of 2.38%.

Turning to `Cc1cc(C)n(CC(O)Cn2c3ccc(Cl)cc3c3cc(Cl)ccc32)n1` (centres undefined), the IFI was 0.694%.

On to `O=C(NCc1ccco1)C1CCCN(c2cccc3c2C(=O)N(CCc2cccc(F)c2)C3=O)C1` (centres undefined), for which the IFI was 6%.

With `COC(=O)C1=C(C)NC2=C(C(=O)CC(c3ccc(OC)c(OC)c3)C2)C1c1ccc(Cl)cc1Cl` (centres undefined), the IFI was 6.02%.

Take `CC[n+]1c(/C=C/c2ccc(F)cc2)ccc2ccccc21`: the IFI was 5.1%.

Regarding `CN(C)c1cc[n+](CC(=O)c2ccc(Cl)cc2)cc1`, the IFI was 0%.

`COc1cc(NC(C)CCCN(Cc2ccc(Cl)cc2)C(=O)Nc2cccc(C(F)(F)F)c2)c2ncccc2c1` (centres undefined) yielded an IFI of 2.7%.

Compound `CC[n+]1c(C=CN(C)c2ccccc2)oc(-c2ccccc2)c1-c1ccccc1` gave an IFI of 22.7%.

`O=C(Nc1cccnc1)c1cc(-c2cccnc2)nc2ccc(Cl)cc12`: the IFI worked out at 0%.

As for `CC(C)C[C@@H](NC(=O)[C@H](C)NC(=O)CNC(=O)[C@@H](NC=O)C(C)C)C(=O)N[C@@H](C)C(=O)N[C@@H](C(=O)N[C@H](C(=O)N[C@@H](C(=O)N[C@@H](Cc1c[nH]c2ccccc12)C(=O)N[C@H](CC(C)C)C(=O)N[C@@H](Cc1c[nH]c2ccccc12)C(=O)N[C@H](CC(C)C)C(=O)N[C@@H](Cc1c[nH]c2ccccc12)C(=O)N[C@H](CC(C)C)C(=O)N[C@@H](Cc1c[nH]c2ccccc12)C(=O)NCCO)C(C)C)C(C)C)C(C)C`, the IFI was determined as 27.6%.

The compound `CC1(C)C2CCC1(C)C(NCc1ccccc1O)C2` (centres undefined) had an IFI of 1.49%.

Turning to `Cc1ncc(CN2CCC(C(=O)Nc3ccc(-n4cccn4)cc3)CC2)s1`, the IFI is 0%.

Turning to `CCCCCc1ccc(OCCCC[n+]2cccc(C)c2)c(CCCCC)c1`, the IFI was 14.7%.

For the compound `Cc1ccn2c(NC(C)(C)CC(C)(C)C)c(-c3ccccc3OC(=O)c3ccc(Cl)cc3Cl)nc2c1`, the IFI is 5.66%.

For the compound `COc1ccc(Nc2ccccc2NC(=O)c2cccc(N(C)C)c2)cc1`, the IFI came to 0%.

In turn, `C[n+]1ccc(/C=C/c2c[nH]c3ccccc23)cc1` registered an IFI of 7.46%.

On to `CCCCOc1ccc(NC2=C(N3CCCCC3)C(=O)c3ccccc3C2=O)cc1`, for which the IFI worked out at 11%.

Consider `COc1ccc(S(=O)(=O)N(C)CCCNc2ccnc3cc(Cl)ccc23)cc1`, for which the IFI came out at 10.2%.

As for `CCc1ccc(C(=O)C[n+]2cc(-c3ccc(OC)cc3)n3c2CCC3)cc1`, the IFI was 2.44%.

Take `CCCCCCOc1ccc(NC(=O)c2ccco2)cc1`: the IFI is 0%.

`Cc1ccccc1C(=O)N1CCC(n2nccc2NC(=O)CCOc2ccccc2)CC1`: the IFI amounted to 0%.

`CC(=O)Nc1ccc(S(=O)(=O)N(C)CC(=O)NN=Cc2ccncc2)cc1` showed an IFI of 0%.

Compound `CC(C)(C)C1CCc2[nH]c3ccccc3c(=O)c2C1` (centres undefined) came in with an IFI of 0%.

Take `Cc1ccc(Nc2nc(NN=Cc3ccc(-c4ccc([N+](=O)[O-])cc4)o3)nc(Nc3ccccc3)n2)c(C)c1`: the IFI came to 0%.

`O=C(NCCCCNc1ccnc2cc(Cl)ccc12)c1ccc([N+](=O)[O-])cc1` returned an IFI of 3.74%.

Turning to `CCN(CC)c1scc(-c2ccc(Cl)cc2)[s+]1`, the IFI came out at 3.08%.

Take `CCn1c2ccccc2c2cc(C=NNC(=O)c3nnn(-c4nonc4N)c3-c3ccccc3)ccc21`: the IFI was 0%.

With `O=[N+]([O-])c1cc([N+](=O)[O-])c2cccnc2c1Nc1cccc2cccnc12`, the IFI amounted to 10%.

In turn, `COc1ccc(/C=C/C(=O)Nc2ccncc2)cc1OC` came in with an IFI of 2.9%.

`Cc1cc(C)c(S(=O)(=O)N2CCCC2CNC(=O)c2cccc([N+](=O)[O-])c2)c(C)c1` (centres undefined) registered an IFI of 0%.

On to `C1=C(c2ccc(CN3CCCCC3)cc2)N2CCN=C2c2ccccc21`, for which the IFI was 2.98%.

Consider `O=C(CN1CCCC1)Nc1ccc(-c2nc3cc(NC(=O)CN4CCCC4)ccc3o2)cc1`, for which the IFI worked out at 5.41%.

`CC(NS(=O)(=O)c1ccccc1)C(=O)NC1CCCC1` (centres undefined): the IFI amounted to 0%.

For the compound `c1ccc(C[C@H]2CN(c3ccc4ccccc4c3)CCN2CCNCC2CCCO2)cc1` (some centres undefined), the IFI came to 3.66%.

The compound `O=C(Nc1ccc(Cl)cc1)Nc1ccc(Br)cn1` yielded an IFI of 4.17%.

Take `Cc1ccn2c(NC(C)(C)CC(C)(C)C)c(-c3ccccc3OC(=O)C3CCC3)nc2c1`: the IFI was 2.8%.

In turn, `CCCN(C(=O)Nc1c(C(C)C)cccc1C(C)C)C(CC)c1nc2ccccc2c(=O)n1-c1cccc(C)c1` (centres undefined) showed an IFI of 0.943%.

On to `N#CN=C(N)c1sc(Nc2ccccc2)nc1N`, for which the IFI worked out at 15.4%.

Compound `CC(C)(C)CC(C)(C)Nc1c(-c2ccccc2OC(=O)c2ccccc2Cl)nc2ccccn12` gave an IFI of 4.72%.

`COc1cc(NC(C)CCCN(Cc2ccccc2OC)C(=O)C(Cl)Cl)c2ncccc2c1` (centres undefined) showed an IFI of 7.14%.

For the compound `CC(C)C1Oc2cc3oc(=O)ccc3cc2C1=NO` (centres undefined), the IFI was 3.12%.

Take `O=C1c2cccc(N3CCN(Cc4cccn4-c4nccs4)CC3)c2C(=O)N1Cc1ccc(Cl)cc1`: the IFI is 2.59%.

The compound `COc1cc(OC)cc(C(=O)NCc2n[nH]c(=S)n2-c2cccc(Cl)c2)c1` gave an IFI of 1.15%.

The compound `CCOC(=O)C1=C(C)NC2=C(C(=O)CC(c3ccc(Cl)cc3)C2)C1c1ccc(Br)cc1` (centres undefined) showed an IFI of 5.88%.

For the compound `Cc1ccc(C)c(-c2csc(Nc3ccc(C)c(C)c3)n2)c1`, the IFI was determined as 5.88%.

`CCCCCCN(C(=O)COc1ccc(Cl)cc1)C(CC)c1nc2ccccc2c(=O)n1-c1cccc(Cl)c1` (centres undefined) yielded an IFI of 1.89%.

Turning to `CC(=O)N(C1=C(N(C)C)C(=O)c2ccccc2C1=O)c1cccc(O)c1`, the IFI was 0%.

In the case of `CCN1CCN(c2cc(C)c3cc(NC(=O)c4cccc([N+](=O)[O-])c4)ccc3n2)CC1`, the IFI stood at 0%.

Take `Cc1ccc2nc(Nc3ncc4c(n3)CC(C)(C)CC4=O)nc(C)c2c1`: the IFI came to 0%.

`O=C(Nc1ccc(C2=NCCN2)cc1)Nc1cc(C(=O)Nc2ccc(C3=NCCN3)cc2)ccc1C(=O)Nc1ccc(C2=NCCN2)cc1` returned an IFI of 1.8%.

`CCOC(=O)C1=C(CC)NC2=C(C(=O)CC(C)(C)C2)C1c1ccc(Cl)cc1Cl` (centres undefined) came in with an IFI of 0%.

In turn, `CCN(CC)CCCC(C)Nc1c2ccc(Cl)cc2nc2ccc(OC)nc12` (centres undefined) yielded an IFI of 9.76%.

`CN(CCCNc1ccnc2cc(Cl)ccc12)S(=O)(=O)c1ccc(Br)cc1` returned an IFI of 7.41%.

In the case of `CCOC(=O)c1c(NC(=O)COc2ccccc2[N+](=O)[O-])sc(C(C)=O)c1C`, the IFI was 0%.

The compound `CC1(C)N=C(N)N=C(N)N1c1ccccc1` had an IFI of 5.3%.

Consider `Cc1ccc(CSCc2ccc(C(=O)NC3CC3)o2)cc1`, for which the IFI amounted to 0%.

Compound `N#Cc1ccc(NC(=O)c2cc(Cl)ccc2O)cc1` yielded an IFI of 24.7%.

`C[n+]1c(/C=C/c2ccc(F)cc2)ccc2ccccc21` registered an IFI of 8.77%.

For `CN(C)CCNc1ccc2ncc(-c3ccsc3)n2n1`, the IFI turned out to be 0%.

In the case of `Cc1cccc(C(=O)NCc2nnc(S)n2-c2cccc(C(F)(F)F)c2)c1`, the IFI is 1.18%.

`COc1ccc(OCC(O)CNC2CCN(CC(O)COc3ccc(Cl)c(Cl)c3)CC2)cc1` (centres undefined) returned an IFI of 3.36%.

The compound `CN(C)CCCn1c(N)c(-c2nc3ccccc3[nH]2)c2nc(C#N)c(C#N)nc21` showed an IFI of 0%.

The compound `CCn1c(SCC(=O)N(c2ccccc2)c2ccccc2)nc2sc3c(c2c1=O)CCN(C)C3` returned an IFI of 2%.

With `COc1ccc(-c2ccc(C(=O)N(C)Cc3cscn3)c(N3CCC(N4CCc5ccccc5C4)CC3)n2)cc1`, the IFI was determined as 3.85%.

As to `CCOC(=O)c1c(N=Cc2cccc(OC)c2O)sc2c1CCN(C)C2`, the IFI was determined as 0%.

Compound `Cc1ccnc(Nc2nc(-c3ccccn3)cs2)c1` gave an IFI of 24.6%.

In turn, `CC(=O)Nc1cccc(NC(=O)C(F)(F)F)c1` gave an IFI of 4.76%.

In the case of `COc1cc(C2c3[nH]c4ccccc4c3C[C@@H]3C(=O)N(CCc4ccccc4)CC(=O)N23)cc(OC)c1OC` (some centres undefined), the IFI stood at 2%.

With `CCCCC(CC)C(=O)NCCCCNc1ccnc2cc(Cl)ccc12` (centres undefined), the IFI was found to be 7.41%.
